# The list shows a part of the results.
# Tests used:
# Test in all cases: glycan array binding signal (z-score within array); higher = stronger binding
# Conditions in all cases: glycan notation: IUPAC condensed, linker removed
# [1] = molecular target: GlcNAc(b1-4)GlcNAc(b1-4)GlcNAc(b1-4)GlcNAc(b1-4)GlcNAc
# Summary of the method: (§1)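 Glycan array data came from 3228 arrays in the Consortium for Functional Glycomics database, and only arrays with an available protein sequence were kept. Glycan names were put into IUPAC-condensed notation, and columns mapping to the same glycan were averaged. The binding signal is a within-array Z-score, averaged across arrays of one protein sequence run at different concentrations or buffers and across linkers. A negative Z-score can be read as non-binding.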
# [2] = molecular target: GlcNAc(b1-4)GlcNAc(b1-4)GlcNAc(b1-4)GlcNAc(b1-4)GlcNAc(b1-4)GlcNAc
# Summary of the method: as §1
# [3] = molecular target: GlcNAc(b1-4)[GlcNAc(b1-6)]GalNAc
# Summary of the method: as §1
# [4] = molecular target: GlcNAc(b1-6)Gal(b1-4)GlcNAc
# Summary of the method: as §1
# GlcNAc(b1-6)GalNAc = molecular target: GlcNAc(b1-6)GalNAc
# Summary of the method: as §1
# Kdn(a2-3)Gal(b1-3)GlcNAc = molecular target: Kdn(a2-3)Gal(b1-3)GlcNAc
# Summary of the method: as §1
# Kdn(a2-3)Gal(b1-4)GlcNAc = molecular target: Kdn(a2-3)Gal(b1-4)GlcNAc
# Summary of the method: as §1
# [5] = molecular target: Man(a1-2)Man(a1-2)Man(a1-3)Man
# Summary of the method: as §1
# [6] = molecular target: Man(a1-2)Man(a1-2)Man(a1-6)[Man(a1-3)]Man
# Summary of the method: as §1
# Man(a1-2)Man(a1-3)Man = molecular target: Man(a1-2)Man(a1-3)Man
# Summary of the method: as §1
# [7] = molecular target: Man(a1-2)Man(a1-3)[Man(a1-2)Man(a1-6)]Man
# Summary of the method: as §1
# [8] = molecular target: Man(a1-2)Man(a1-3)[Man(a1-2)Man(a1-6)]Man(a1-6)[Man(a1-2)Man(a1-2)Man(a1-3)]Man(b1-4)GlcNAc(b1-4)GlcNAc
# Summary of the method: as §1
# [9] = molecular target: Man(a1-2)Man(a1-3)[Man(a1-2)Man(a1-6)]Man(a1-6)[Man(a1-3)[Man(a1-6)]Man(a1-6)]Man(b1-4)GlcNAc(b1-4)GlcNAc
# Summary of the method: as §1
# [10] = molecular target: Man(a1-2)Man(a1-3)[Man(a1-6)]Man(a1-6)[Man(a1-2)Man(a1-3)]Man(b1-4)GlcNAc(b1-4)GlcNAc
# Summary of the method: as §1
# [11] = molecular target: Man(a1-2)Man(a1-6)[Man(a1-3)]Man(a1-6)[Man(a1-2)Man(a1-2)Man(a1-3)]Man(b1-4)GlcNAc(b1-4)GlcNAc
# Summary of the method: as §1
# Man(a1-3)[Man(a1-6)]Man = molecular target: Man(a1-3)[Man(a1-6)]Man
# Summary of the method: as §1
# [12] = molecular target: Man(a1-3)[Man(a1-6)]Man(a1-6)[Man(a1-3)]Man(b1-4)GlcNAc(b1-4)GlcNAc
# Summary of the method: as §1
# [13] = molecular target: Man(a1-3)[Man(a1-6)]Man(b1-4)GlcNAc(b1-4)GlcNAc
# Summary of the method: as §1
# Man(b1-4)GlcNAc = molecular target: Man(b1-4)GlcNAc
# Summary of the method: as §1
# Neu5Ac(a2-3)Gal = molecular target: Neu5Ac(a2-3)Gal
# Summary of the method: as §1
# [14] = molecular target: Neu5Ac(a2-3)Gal(b1-3)GalNAc
# Summary of the method: as §1
# [15] = molecular target: Neu5Ac(a2-3)Gal(b1-3)GalNAc(b1-3)Gal(a1-4)Gal(b1-4)Glc
# Summary of the method: as §1
# [16] = molecular target: Neu5Ac(a2-3)Gal(b1-3)GalNAc(b1-3)Gal(b1-4)GlcNAc
# Summary of the method: as §1
# [17] = molecular target: Neu5Ac(a2-3)Gal(b1-3)GalNAc(b1-4)[Neu5Ac(a2-3)]Gal(b1-4)Glc
# Summary of the method: as §1
# [18] = molecular target: Neu5Ac(a2-3)Gal(b1-3)GalNAc6S
# Summary of the method: as §1
# [19] = molecular target: Neu5Ac(a2-3)Gal(b1-3)GlcNAc
# Summary of the method: as §1
# [20] = molecular target: Neu5Ac(a2-3)Gal(b1-3)GlcNAc6S
# Summary of the method: as §1
# [21] = molecular target: Neu5Ac(a2-3)Gal(b1-3)[Fuc(a1-4)]GlcNAc
# Summary of the method: as §1
# [22] = molecular target: Neu5Ac(a2-3)Gal(b1-3)[Fuc(a1-4)]GlcNAc(b1-3)Gal(b1-4)[Fuc(a1-3)]GlcNAc
# Summary of the method: as §1
# [23] = molecular target: Neu5Ac(a2-3)Gal(b1-3)[Neu5Ac(a2-3)Gal(b1-4)]GlcNAc
# Summary of the method: as §1
# [24] = molecular target: Neu5Ac(a2-3)Gal(b1-3)[Neu5Ac(a2-6)]GalNAc
# Summary of the method: as §1
# Neu5Ac(a2-3)Gal(b1-4)Glc = molecular target: Neu5Ac(a2-3)Gal(b1-4)Glc
# Summary of the method: as §1
# [25] = molecular target: Neu5Ac(a2-3)Gal(b1-4)GlcNAc
# Summary of the method: as §1
# [26] = molecular target: Neu5Ac(a2-3)Gal(b1-4)GlcNAc(b1-2)Man(a1-3)[Neu5Ac(a2-3)Gal(b1-4)GlcNAc(b1-2)Man(a1-6)]Man(b1-4)GlcNAc(b1-4)GlcNAc
# Summary of the method: as §1
# [27] = molecular target: Neu5Ac(a2-3)Gal(b1-4)GlcNAc(b1-3)Gal(b1-4)GlcNAc
# Summary of the method: as §1
# [28] = molecular target: Neu5Ac(a2-3)Gal(b1-4)GlcNAc(b1-3)Gal(b1-4)GlcNAc(b1-3)Gal(b1-4)GlcNAc
# Summary of the method: as §1
# [29] = molecular target: Neu5Ac(a2-3)Gal(b1-4)GlcNAc(b1-3)Gal(b1-4)[Fuc(a1-3)]GlcNAc
# Summary of the method: as §1
binder,measurement,setting,value
MAL (Maackia amurensis) (protein) SDELSFTINNFMPNQGDLLFQGVATVSPTGVLQLTSEENGQPLEYSVGRVLYTAPVRIWDSTTGAVASFSTSFTFVVKAARGASDGLAFFLAPPDSQIPSGSVSKYLGLFNNSNSDSSNQIVAVEFDTYFGHSYDPWDPNYRHIGIDVNGIESIKTVQWDWINGGVAFATITYLAPNKTLIASLVYPSNQTSFIVAASVDLKEILPEWVRVGFSAATGAPKAVETHDVRSWSFTSTLEANSPADVDN,glycan array binding signal (z-score),[1],-0.419
same,glycan array binding signal (z-score),[2],-0.046
same,glycan array binding signal (z-score),[3],-0.221
same,glycan array binding signal (z-score),[4],-0.412
same,glycan array binding signal (z-score),GlcNAc(b1-6)GalNAc,-0.302
same,glycan array binding signal (z-score),Kdn(a2-3)Gal(b1-3)GlcNAc,0.08
same,glycan array binding signal (z-score),Kdn(a2-3)Gal(b1-4)GlcNAc,1.56
same,glycan array binding signal (z-score),[5],-0.423
same,glycan array binding signal (z-score),[6],-0.292
same,glycan array binding signal (z-score),Man(a1-2)Man(a1-3)Man,-0.383
same,glycan array binding signal (z-score),[7],-0.303
same,glycan array binding signal (z-score),[8],-0.328
same,glycan array binding signal (z-score),[9],-0.305
same,glycan array binding signal (z-score),[10],-0.378
same,glycan array binding signal (z-score),[11],-0.211
same,glycan array binding signal (z-score),Man(a1-3)[Man(a1-6)]Man,-0.38
same,glycan array binding signal (z-score),[12],-0.159
same,glycan array binding signal (z-score),[13],0.125
same,glycan array binding signal (z-score),Man(b1-4)GlcNAc,-0.191
same,glycan array binding signal (z-score),Neu5Ac(a2-3)Gal,-0.429
same,glycan array binding signal (z-score),[14],-0.357
same,glycan array binding signal (z-score),[15],-0.194
same,glycan array binding signal (z-score),[16],-0.409
same,glycan array binding signal (z-score),[17],-0.409
same,glycan array binding signal (z-score),[18],0.112
same,glycan array binding signal (z-score),[19],-0.331
same,glycan array binding signal (z-score),[20],0.76
same,glycan array binding signal (z-score),[21],-0.428
same,glycan array binding signal (z-score),[22],-0.301
same,glycan array binding signal (z-score),[23],-0.425
same,glycan array binding signal (z-score),[24],-0.013
same,glycan array binding signal (z-score),Neu5Ac(a2-3)Gal(b1-4)Glc,0.228
same,glycan array binding signal (z-score),[25],1.39
same,glycan array binding signal (z-score),[26],-0.236
same,glycan array binding signal (z-score),[27],0.816
same,glycan array binding signal (z-score),[28],2.26
same,glycan array binding signal (z-score),[29],0.762
